# In the supplement of paper PMC10037445:
# The full ranking holds about 2,900 compounds; the median of “IRF Lucia reporter activity, fold change vs agonist alone” is about 0.9, and the highest 2% start at about 2.8. The list shows a part of the results.
# Columns and labels:
# RAW-Dual [1] = assay: IRF Lucia reporter activity, fold change vs agonist alone; cytotoxicity flag (confluency mask): not cytotoxic; higher = enhanced IRF activity
# In short: (§1)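 RAW-Dual macrophages (50,000 cells/well in DMEM, 384-well plates) received 50 nL of library stock by pin tool, then a PRR agonist 1 h later, and were kept at 37 °C, 5% CO2. After 20 hours, supernatant was read for IRF by QuantiLuc luminescence and for NF-κB by QuantiBlue absorbance at 620 nm. Reporter activity is fold change over agonist-alone wells. Cytotoxic wells had IncuCyte confluency below 70% of agonist controls in both mask sets.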
# RAW-Dual [2] = assay: IRF Lucia reporter activity, fold change vs agonist alone; higher = enhanced IRF activity; settings: agonist: MPLA (TLR4) […]
# In short: as §1
# RAW-Dual [3] = assay: IRF Lucia reporter activity, fold change vs agonist alone; cytotoxicity flag (confluency mask): cytotoxic (confluency <70% of control); higher = enhanced IRF activity
# In short: as §1
# [4] = agonist: 3'3'-cGAMP (STING) 10 ug/mL
# [5] = library stock concentration (final ~1000-fold dilution): 10 mM, cytotoxicity flag (confluency mask): not cytotoxic
structure (smiles),measurement,setting,value
Cl.Cl.O=S(=O)(NCCNC/C=C/c1ccc(Br)cc1)c1cccc2cnccc12 (library stock concentration (final ~1000-fold dilution): 10 mM),IRF Lucia reporter activity,RAW-Dual [1]; [4],0.867
same,IRF Lucia reporter activity,RAW-Dual [1]; agonist: LPS (TLR4) 0.1 ug/mL,0.926
Cl.Cl.O=S(=O)(NCCNC/C=C/c1ccc(Br)cc1)c1cccc2cnccc12,IRF Lucia reporter activity,RAW-Dual [2]; [5],1.34
O=C(O)CSCC(=O)NC1CCSC1=O (stereo not given) (library stock concentration (final ~1000-fold dilution): 10 mM),IRF Lucia reporter activity,RAW-Dual [1]; [4],1.03
same,IRF Lucia reporter activity,RAW-Dual [1]; agonist: LPS (TLR4) 0.1 ug/mL,1.21
CC(C)(C)Cn1c(N)nc2ccc(-c3[nH]c(C(C)(C)C)nc3-c3ccc(F)cc3)nc21.CS(=O)(=O)O.CS(=O)(=O)O (library stock concentration (final ~1000-fold dilution): 10 mM water),IRF Lucia reporter activity,RAW-Dual [1]; [4],0.962
same,IRF Lucia reporter activity,RAW-Dual [1]; agonist: LPS (TLR4) 0.1 ug/mL,0.696
CC(C)(C)Cn1c(N)nc2ccc(-c3[nH]c(C(C)(C)C)nc3-c3ccc(F)cc3)nc21.CS(=O)(=O)O.CS(=O)(=O)O,IRF Lucia reporter activity,"RAW-Dual [2]; library stock concentration (final ~1000-fold dilution): 10 mM water, cytotoxicity flag (confluency mask): not cytotoxic",1.32
COc1ccccc1C(=O)Nc1cc2c(cc1N1CCNCC1C)n(C)c(=O)n2C (stereo not given) (library stock concentration (final ~1000-fold dilution): 10 mM),IRF Lucia reporter activity,RAW-Dual [1]; [4],0.61
same,IRF Lucia reporter activity,RAW-Dual [1]; agonist: LPS (TLR4) 0.1 ug/mL,0.729
Cn1cc(-c2ccc3nnc(Sc4ccc5ncccc5c4)n3n2)cn1,IRF Lucia reporter activity,"RAW-Dual [2]; library stock concentration (final ~1000-fold dilution): 2 mM, cytotoxicity flag (confluency mask): not cytotoxic",1.13
Cn1cc(-c2ccc3nnc(Sc4ccc5ncccc5c4)n3n2)cn1 (library stock concentration (final ~1000-fold dilution): 2 mM),IRF Lucia reporter activity,RAW-Dual [1]; [4],0.896
same,IRF Lucia reporter activity,RAW-Dual [1]; agonist: LPS (TLR4) 0.1 ug/mL,0.852
CC#Cc1cncc(-c2ccc3c(c2)C2(N=C(C)C(N)=N2)C2(CCC(OC)CC2)C3)c1 (stereo not given) (library stock concentration (final ~1000-fold dilution): 10 mM),IRF Lucia reporter activity,RAW-Dual [1]; [4],0.383
same,IRF Lucia reporter activity,RAW-Dual [1]; agonist: LPS (TLR4) 0.1 ug/mL,1.1
O=C1NC(=O)/C(=C/c2cccc(C(F)(F)F)c2)S1 (library stock concentration (final ~1000-fold dilution): 10 mM),IRF Lucia reporter activity,RAW-Dual [1]; [4],0.789
same,IRF Lucia reporter activity,RAW-Dual [1]; agonist: LPS (TLR4) 0.1 ug/mL,0.966
CC1(C)CCC2(C(=O)O)CCC3(CO)C(=CCC4C5(C)CC(O)C(OC6OC(CO)C(O)C(O)C6O)C(C)(C(=O)O)C5CCC43C)C2C1 (stereo not given) (library stock concentration (final ~1000-fold dilution): 10 mM),IRF Lucia reporter activity,RAW-Dual [1]; [4],0.854
same,IRF Lucia reporter activity,RAW-Dual [1]; agonist: LPS (TLR4) 0.1 ug/mL,1.11
CN1CCN(C2CCN(C(=O)Nc3cc(Oc4ccc(NC(=O)C5(C(=O)Nc6ccc(F)cc6)CC5)c(F)c4)ccn3)CC2)CC1,IRF Lucia reporter activity,"RAW-Dual [2]; library stock concentration (final ~1000-fold dilution): 10 mM, cytotoxicity flag (confluency mask): cytotoxic (confluency <70% of control)",1.91
CN1CCN(C2CCN(C(=O)Nc3cc(Oc4ccc(NC(=O)C5(C(=O)Nc6ccc(F)cc6)CC5)c(F)c4)ccn3)CC2)CC1 (library stock concentration (final ~1000-fold dilution): 10 mM),IRF Lucia reporter activity,RAW-Dual [3]; [4],0.781
same,IRF Lucia reporter activity,RAW-Dual [3]; agonist: LPS (TLR4) 0.1 ug/mL,0.874
CC(C)=CCC[C@](C)(O[C@@H]1O[C@H](CO[C@@H]2O[C@H](CO)[C@@H](O)[C@H](O)[C@H]2O)[C@@H](O)[C@H](O)[C@H]1O)[C@H]1CC[C@]2(C)[C@@H]1[C@H](O)C[C@@H]1[C@@]3(C)CC[C@H](O[C@@H]4O[C@H](CO)[C@@H](O)[C@H](O)[C@H]4O[C@@H]4O[C@H](CO)[C@@H](O)[C@H](O)[C@H]4O)C(C)(C)[C@@H]3CC[C@]12C (library stock concentration (final ~1000-fold dilution): 10 mM),IRF Lucia reporter activity,RAW-Dual [1]; [4],0.142
same,IRF Lucia reporter activity,RAW-Dual [1]; agonist: LPS (TLR4) 0.1 ug/mL,0.445
CCCC(=O)OCOC(=O)C1=C(C)NC(C)=C(C(=O)OC)C1c1cccc(Cl)c1Cl (stereo not given) (library stock concentration (final ~1000-fold dilution): 10 mM),IRF Lucia reporter activity,RAW-Dual [1]; [4],1.02
same,IRF Lucia reporter activity,RAW-Dual [1]; agonist: LPS (TLR4) 0.1 ug/mL,0.873
CCCC(=O)OCOC(=O)C1=C(C)NC(C)=C(C(=O)OC)C1c1cccc(Cl)c1Cl (stereo not given),IRF Lucia reporter activity,RAW-Dual [2]; [5],0.992
CN(C/C=C/C#CC(C)(C)C)Cc1cccc2ccccc12,IRF Lucia reporter activity,RAW-Dual [2]; [5],0.91
CN(C/C=C/C#CC(C)(C)C)Cc1cccc2ccccc12 (library stock concentration (final ~1000-fold dilution): 10 mM),IRF Lucia reporter activity,RAW-Dual [1]; [4],1.26
same,IRF Lucia reporter activity,RAW-Dual [1]; agonist: LPS (TLR4) 0.1 ug/mL,1.26
CN1CCN(c2ccc(OC(F)(F)F)c(Nc3ncc4c(n3)-c3c(c(C(N)=O)nn3CCO)CC4)c2)CC1 (library stock concentration (final ~1000-fold dilution): 10 mM),IRF Lucia reporter activity,RAW-Dual [1]; [4],0.405
same,IRF Lucia reporter activity,RAW-Dual [1]; agonist: LPS (TLR4) 0.1 ug/mL,0.364
CN1CCN(c2ccc(OC(F)(F)F)c(Nc3ncc4c(n3)-c3c(c(C(N)=O)nn3CCO)CC4)c2)CC1,IRF Lucia reporter activity,RAW-Dual [2]; [5],0.656
Cc1cc(C)c(CNC(=O)c2cc(-c3ccc(N4CCN(C)CC4)nc3)cc3c2c(C)cn3C(C)C)c(=O)[nH]1 (library stock concentration (final ~1000-fold dilution): 10 mM),IRF Lucia reporter activity,RAW-Dual [1]; [4],0.211
same,IRF Lucia reporter activity,RAW-Dual [1]; agonist: LPS (TLR4) 0.1 ug/mL,0.68
O=C(CNc1ccc2ccccc2c1)N/N=C/c1cc(Br)c(O)c(Br)c1O (library stock concentration (final ~1000-fold dilution): 10 mM),IRF Lucia reporter activity,RAW-Dual [1]; [4],0.323
same,IRF Lucia reporter activity,RAW-Dual [1]; agonist: LPS (TLR4) 0.1 ug/mL,1.28
CC(C)=CCCC(C)(OC1OC(CO)C(O)C(O)C1O)C1CCC2(C)C1C(O)CC1C3(C)CCC(O)C(C)(C)C3C(OC3OC(CO)C(O)C(O)C3OC3OCC(O)C(O)C3O)CC12C (stereo not given) (library stock concentration (final ~1000-fold dilution): 10 mM),IRF Lucia reporter activity,RAW-Dual [1]; [4],0.924
same,IRF Lucia reporter activity,RAW-Dual [1]; agonist: LPS (TLR4) 0.1 ug/mL,1.2
CC(C)=CCCC(C)(OC1OC(CO)C(O)C(O)C1O)C1CCC2(C)C1C(O)CC1C3(C)CCC(O)C(C)(C)C3C(OC3OC(CO)C(O)C(O)C3OC3OCC(O)C(O)C3O)CC12C (stereo not given),IRF Lucia reporter activity,RAW-Dual [2]; [5],1.01
